In PubChem BioAssay AID1458 (National Center for Advancing Translational Sciences (NCATS), 2008):
Out of some 210,000 compounds screened, about 5,900 (2.8%) were called active. Inconclusive means that the source gave no clear call. Such entries were picked first, then a sample of the others. The call rests on the fitted dose curve; in most records, active means well fitted activation curve with a large enough effect; inconclusive means small, poorly fitted or top-dose-only effect; inactive means no such curve, though single readings can be large or run the other way. Potencies of inconclusive entries are doubtful fits and often do not repeat.

assay: qHTS Assay for Enhancers of SMN2 Splice Variant Expression; settings: HEK293 SMN2-luciferase splicing reporter, luminescence, 30-36 h; activity change, positive = activation: at 46.1 µM (top of the series); further: nearly all actives have a fitted effect of over 55% in size; on activity change, positive = activation: % of control where 0% means no effect
In short: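 HEK293 cells carry an SMN2 […]–luciferase reporter in which exon 7 inclusion puts luciferase in frame. Cells were plated 10-12 h before compound addition, then incubated 30-36 h at 37C. ONE-Glo luminescence was read; sodium butyrate at 4.5 mM final served as control.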
Potency means the concentration at half of the fitted maximal effect; tags describe the fitted curve by direction and shape.

Row | SMILES | Potency | activity change, positive = activation
1 | Cc1ccc(NC(=O)Cn2c(=O)n(Cc3ccco3)c(=O)c3ccccc32)c(C)c1 | inconclusive: 25.1 µM [activator, single point] | 
2 | COc1ccc(C(C)C)cc1S(=O)(=O)Nc1ccccn1 | inconclusive: 0.0032 µM [activator, full curve, poor fit] | 
3 | Cc1ccc(-c2nc3ncccc3o2)cc1NC(=O)c1ccc(-c2ccc(Cl)cc2)o1 |  | inactive: -8.7%
4 | CNC(=O)c1ccc(Oc2ccc(C(=O)NC)cc2)cc1 | inconclusive: 35.5 µM [activator, single point] | 
5 | CC(=O)Nc1ccc(N(CC(O)Cn2c3ccccc3c3ccccc32)S(=O)(=O)c2ccc(C)cc2)cc1 (stereo unspecified) | inconclusive: 0.1 µM [activator, partial curve] | 
6 | Nn1c(Nc2ccccc2)nc2sc3c(c2c1=O)CCCC3 | inconclusive: 3.55 µM [activator, single point] | 
7 | Cn1ncc2nnn(-c3ccccc3)c(=O)c21 |  | inactive: 9.8%
8 | CC(=O)Nc1ccc(/C=N/OCC(=O)Nc2ccc(C)cc2)cc1 | inconclusive: 8.91 µM [activator, partial curve, poor fit] | 
9 | N#CCCN(C(=O)COc1ccc(Br)cc1F)c1ccc(F)cc1 |  | inactive: -2.86%
10 | Cc1cc(C)c2nc(SCC(=O)NNC(=O)c3ccco3)c(C)cc2c1 | inconclusive: 22.4 µM [activator, single point] | 
11 | CCCN1CCN(C(=O)C2CCN(S(=O)(=O)c3ccc4c(c3)oc(=O)n4C)CC2)CC1 |  | inactive: 3.3%
12 | S=C(NC1CC2CCC1C2)N1CCN(c2cccc(Cl)c2)CC1 (stereo unspecified) |  | inactive: -29.4%
13 | CCCOC(=O)c1ccc(NC(=O)C2C3CCC(C3)C2C(=O)O)cc1 (stereo unspecified) | inconclusive: 20 µM [activator, single point] | 
14 | O=C(NCc1ccco1)c1noc2c1CCCCC2 | inconclusive: 35.5 µM [activator, single point] | 
15 | CC1(C)CC23C(=O)CCC(O)C2(C)CCC13 (stereo unspecified) |  | inactive: 1.62%
16 | CC(=O)c1sc(NC(=O)c2cccc3ccccc23)nc1C | inconclusive: 5.62 µM [activator, single point] | 
17 | COc1cccc(C(=O)NNC(=O)Cc2csc(N)n2)c1 | inconclusive: 35.5 µM [activator, single point] | 
18 | CCOc1cccc(C(=O)NC2CCCCC2)c1 | inconclusive: 12.6 µM [activator, partial curve, poor fit] | 
19 | CCc1ccc(NC(=O)C(=O)N/N=C(\C)CC(=O)Nc2ccccn2)cc1 | inconclusive: 0.224 µM [activator, full curve] | 
20 | O=C(/C=C/c1ccccc1)Nc1ccc2c(c1)OCCO2 | active: 1.12 µM | 
21 | COc1ccc(-n2nc([N+](=O)[O-])c(=NCc3ccc4c(c3)OCO4)n2O)cc1 | inconclusive: 3.16 µM [activator, full curve] | 
22 | Cc1ccc([N+](=O)[O-])cc1S(=O)(=O)Nc1ccc(N2CCOCC2)cc1 |  | inactive: -1.02%
23 | COc1cc(NC(=O)C(C)C)ccc1NC(=O)c1ccco1 | active: 11.2 µM | 

Row | SMILES | Potency | activity change, positive = activation
24 | COc1ccc(CCNC(=O)c2[nH]c(C)c(C(C)=O)c2C)cc1OC | inconclusive: 5.01 µM [activator, single point] | 
25 | Cn1c(N/N=C/c2cc3ccccc3nc2Cl)nc2ccccc21 | active: 2.24 µM | 
26 | N#Cc1cc2c(nc1SCC1COc3ccccc3O1)CCC2 (stereo unspecified) | inconclusive: 15.8 µM [activator, single point] | 
27 | O=C(CN1C(=O)C2C3c4ccccc4C(c4ccccc43)C2C1=O)N1CCOCC1 (stereo unspecified) | inconclusive: 0.0794 µM [activator, full curve, poor fit] | 
28 | Cc1nnc(NC(=O)Oc2ccccc2)s1 |  | inactive: 5.64%
29 | COc1ccccc1NC(=O)N1c2ccccc2Sc2ccccc21 | inconclusive: 35.5 µM [activator, single point] | 
30 | CCC(CC)c1nnc(NC(=O)C2COc3ccccc3O2)s1 (stereo unspecified) | inconclusive: 11.2 µM [activator, single point] | 
31 | COc1cccc(C(=O)NCc2ccc(-c3nc4ccccc4s3)cc2)c1 | inconclusive: 14.1 µM [activator, single point] | 
32 | c1coc(-c2nc3nc4ccccc4nc3n2-c2ccc3c(c2)OCCO3)c1 |  | inactive: -20.5%
33 | COC(=O)c1cccc(NC(=O)CSc2ncn[nH]2)c1 | inconclusive: 3.55 µM [activator, full curve] | 
34 | CCC(C)NC(=O)CSc1nc2ccc(N3CCOCC3)cc2c(=O)n1CCc1ccccc1 (stereo unspecified) | inconclusive: 3.55 µM [activator, full curve, poor fit] | 
35 | CCC(Oc1ccccc1)C(=O)Nc1nc2ccccc2[nH]1 (stereo unspecified) |  | inactive: 8.16%
36 | CC(C)c1cc(C(=O)N/N=C/c2cccnc2)cs1 | inconclusive: 20 µM [activator, single point] | 
37 | Cc1cc(C)c2c(c1)C1C=CCC1C(c1ccc(S(=O)(=O)N3CCOCC3)cc1)N2 (stereo unspecified) | inconclusive: 15.8 µM [activator, partial curve] | 
38 | Cc1ccc(NC(=O)c2ccc(NCCN)c([N+](=O)[O-])c2)cc1 | inconclusive: 11.2 µM [activator, partial curve] | 
39 | COc1cccc(/C=N/NC(=S)Nc2cccc(C(=O)O)c2)c1O | active: 15.8 µM | 
40 | Cc1cccc(S(=O)(=O)c2c(C)cc(C)nc2Cl)c1 |  | inactive: 4.85%
41 | COc1ccc(C(=O)Nc2ccc(-c3nc4ncccc4o3)cc2C)cc1Br | inconclusive: 5.62 µM [activator, single point] | 
42 | COc1ccc(C)cc1NC(=O)c1ccc2c(c1)OCO2 | inconclusive: 2.24 µM [activator, partial curve, poor fit] | 
43 | CC(=O)c1sc(Nc2nc3cc4c(cc3s2)OCO4)nc1C | active: 11.2 µM | 
44 | COc1cccc(OC)c1C(=O)Nc1ccc(-c2nc3ncccc3o2)cc1 |  | inactive: 0.465%
45 | Cc1ccc(S(=O)(=O)N2CCN(S(=O)(=O)c3ccccc3)C2c2ccc(N(C)C)cc2)cc1 (stereo unspecified) | inconclusive: 5.62 µM [activator, single point] | 
46 | CN=c1scc(-c2ccc(F)cc2)n1/N=C/c1ccc(O)c(O)c1 | inconclusive: 11.2 µM [activator, partial curve, poor fit] | 
